In PubChem BioAssay AID602310 (National Center for Advancing Translational Sciences (NCATS), 2012):
The campaign covered roughly 410,000 compounds. About 310 (0.076%) were called active. Inconclusive means that the source gave no clear call. Such entries were picked first, then a sample of the others. Calls come from the whole dose curve; as a rule, active = well fitted curve in the direction sought with a large enough effect; inconclusive = small, poorly fitted or top-dose-only effect; inactive = flat fitted curve, though single readings scatter. A potency beside an inconclusive call is a rough fit, not a confirmed value.

molecular target: DNA dC->dU-editing enzyme APOBEC-3G (Homo sapiens) (UniProt Q9HC16); test: qHTS for Inhibitors of Vif-A3G Interactions: qHTS; conditions: HeLa A3G-eYFP + Vif (tagged APOBEC3G with the HIV-1 protein that degrades it), YFP fluorescence, overnight; series mostly up to 46.1 µM; activity, negative = active: at the top concentration; note: nearly all actives have a fitted effect of over 60% in size;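 for activity, negative = active: hits raise eYFP signal because A3G escapes Vif-driven loss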
How it was run: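 HeLa cells stably expressing Vif and C-terminally eYFP-tagged A3G, seeded overnight at 37 deg C, then exposed to compound by pintool overnight at 37 deg C. Rise in yellow fluorescence (Ex 488/Em 500-530, Acumen) marks blocked Vif-driven A3G degradation.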
% is set by controls: 0 for no effect and ±100 for the full control effect; potency is the fitted concentration of half-maximal effect; tags give direction and shape of the fitted curve.

Sequence of UniProt Q9HC16 (Q9HC16 whole entry, looked up): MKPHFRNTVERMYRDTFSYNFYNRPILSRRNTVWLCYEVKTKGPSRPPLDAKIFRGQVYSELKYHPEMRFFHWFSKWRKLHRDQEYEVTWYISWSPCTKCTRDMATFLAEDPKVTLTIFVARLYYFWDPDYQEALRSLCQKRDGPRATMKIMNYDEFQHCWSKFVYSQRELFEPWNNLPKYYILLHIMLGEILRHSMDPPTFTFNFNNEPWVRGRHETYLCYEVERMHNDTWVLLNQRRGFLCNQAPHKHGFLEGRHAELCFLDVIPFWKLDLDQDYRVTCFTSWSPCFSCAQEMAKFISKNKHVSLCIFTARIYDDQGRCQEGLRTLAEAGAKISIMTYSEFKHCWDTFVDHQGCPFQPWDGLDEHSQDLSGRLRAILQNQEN

Structure (SMILES)	Potency	activity, negative = active
Nc1c(C(=O)Nc2nccs2)sc2nc(-c3cccs3)cc(C(F)(F)F)c12	active: 8.91 µM	
CC(C(=O)Nc1ccccc1-c1ccccc1)N(C)Cc1nc2ccccc2c(=O)[nH]1 (stereo not given)	inconclusive: 10 µM [inhibitor, partial curve, poor fit]	
COc1ccc(N2CCN(c3cc(C(=O)Nc4cc(OC)c(OC)c(OC)c4)ncn3)CC2)cc1OC	inconclusive: 17.8 µM [inhibitor, single point]	
CCC1=Nc2cc(C(=O)NCC3CCCO3)ccc2Sc2ccc(Cl)cc21 (stereo not given)	inconclusive: 2.24 µM [inhibitor, full curve, poor fit]	
Cc1ccc(C2=NCCn3c2c2ccc([N+](=O)[O-])cc2[n+]3[O-])cc1	inconclusive: 20 µM [inhibitor, single point]	
Cn1c(-c2ccccc2)cc2c3no[n+]([O-])c3ccc21	inconclusive: 1.12 µM [inhibitor, full curve, poor fit]	
CN(C)c1ccc(N/C=C/C(=O)c2ccc(F)cc2)cc1	inconclusive: 35.5 µM [inhibitor, single point]	
COC(=O)Cn1c2ccc(F)cc2c2nc(C)sc21		inactive: -7.96%
COc1ccc(OCCCn2cc(/C=C3/C(=N)N4C=C(C)SC4=NC3=O)c3ccccc32)cc1		inactive: 0.547%
C=C1C(=O)[C@]23C[C@H]1CC[C@H]2[C@]1(C)[C@@H](OC(C)=O)CC[C@@](C)(C(=O)O)[C@H]1C[C@@H]3O	inconclusive: 0.562 µM [inhibitor, full curve, poor fit]	
N#CC1CC(c2ccccc2)Nc2cc(Cl)ccc2N1 (stereo not given)	inconclusive: 2.82 µM [inhibitor, full curve, poor fit]	
Cc1cn2c(=O)cc(COC(=O)c3ccc(NC(=O)C(C)Oc4ccccc4)cc3)nc2s1 (stereo not given)		inactive: -2.04%
Cn1c(=O)n(C)c2cc(S(=O)(=O)NCc3ccccc3)ccc21		inactive: -3.58%
C=CCN1C(=O)/C(=C/C(=O)OC)S/C1=N\NC(=O)c1ccccc1		inactive: -11.1%
COc1ccc(-n2c(=O)c3c4c(sc3n(Cc3ccc(C(C)(C)C)cc3)c2=O)CCC4)c(OC)c1		inactive: 3.66%
Cc1nc(SCC(=O)Nc2nc3ccccc3s2)c(C#N)c(C)c1C		inactive: -6.12%
CCn1nnc2cc(C(=O)Nc3ccc(OC)cc3)ccc21		inactive: -0.0099%
Cc1ccc(C(=O)N2CCCN(c3nc4cc5c(cc4cc3C#N)OCO5)CC2)cc1	inconclusive: 3.16 µM [inhibitor, full curve, poor fit]	
CN1CCCN(C2C3CC4CC(C3)CC2C4)CC1 (stereo not given)		inactive: -2.69%
COc1ccc2c(c1)sc1nc(-c3ccccc3)cn12	inconclusive: 35.5 µM [inhibitor, partial curve, poor fit]	
